“And” between values parts separate entries of the source, which are not always exact repeats. Identical values can stand only once. The campaign covered roughly 340,000 compounds. About 6,900 (2%) were called active. Rule as the data show it: active = inhibition above about 30%; inactive = below that, where a call was filed. Only a part is listed here, and it is no random draw. Entries without a call were filed so in the source.
These compounds were tested against D(2) dopamine receptor (Homo sapiens) (UniProt P14416) (assay: HTS Assay for Allosteric Antagonists of the Human D2 Dopamine Receptor: Primary Screen for Antagonists). Settings: HEK293 TREx D2 cells, calcium flux, dopamine EC80; at 10 µM; stronger effect = higher value.
Summary of the method: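 Calcium flux kinetic readout in an inducible HEK293 TREx D2 line plated overnight at 30 C. After 180 s compound exposure, an EC80 dopamine challenge follows with another 180 s kinetic read to detect antagonism.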
Also: 0% is about no effect.

Chain of UniProt P14416 (P14416 whole entry, looked up): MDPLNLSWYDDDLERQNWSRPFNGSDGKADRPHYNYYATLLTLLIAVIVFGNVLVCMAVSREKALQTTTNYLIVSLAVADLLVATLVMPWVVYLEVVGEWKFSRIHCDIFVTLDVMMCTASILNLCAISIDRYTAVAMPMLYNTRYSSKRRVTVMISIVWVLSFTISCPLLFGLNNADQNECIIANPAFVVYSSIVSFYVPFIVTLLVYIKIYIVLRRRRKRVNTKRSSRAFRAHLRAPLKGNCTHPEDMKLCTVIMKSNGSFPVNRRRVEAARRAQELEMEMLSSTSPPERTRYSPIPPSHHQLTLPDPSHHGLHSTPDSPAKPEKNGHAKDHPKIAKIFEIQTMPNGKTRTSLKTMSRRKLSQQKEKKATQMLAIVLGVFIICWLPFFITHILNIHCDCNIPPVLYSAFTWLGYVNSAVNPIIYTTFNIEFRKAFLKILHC

Point of comparison: Cc1ccc(NC(=O)c2ccc(N(Cc3ccccc3)S(C)(=O)=O)cc2)cc1, inhibition 7.2%. Against it:
- CCOc1ccc(C(=O)Nc2ccc(C(=O)OCc3cc(=O)n4c(C)csc4n3)cc2)cc1 — lower, -10%
- CCC(=O)Nc1ccc(-c2nc3ncccc3o2)cc1C — lower, -3.9%
- Oc1c(C(c2ccc(Cl)cc2Cl)N2CCN(Cc3ccccc3)CC2)sc2nc(-c3ccco3)nn12 (stereo not drawn) — lower, -17.1%
- CC(=O)c1cccc(NC(=O)c2cc3sc(Cl)cc3n2C)c1 — lower, -2.21%
- Cc1ccc(CNC(=O)Cn2ccn(-c3ccc(F)c(F)c3)c(=O)c2=O)cc1 — lower, -0.46%
- CCC(Sc1nc2ccncc2[nH]1)C(=O)Nc1cc(C)ccc1C (stereo not drawn) — lower, -11.1%
- CCC(=O)N1CCc2cc(S(=O)(=O)NCCC(=O)Nc3ccc(C)cc3C)ccc21 — lower, 2.88%
- CC1CCc2noc(NC(=O)c3ccc([N+](=O)[O-])cc3)c2C1 (stereo not drawn) — lower, -5.53%
- Cc1ccc(NC(=O)CN2C(=O)c3ccccc3Sc3ccc(C(=O)N4CCOCC4)cc32)cc1C — higher, 7.49%
- O=C1Nc2ccccc2C1Cc1ccc(Br)cc1 (stereo not drawn) — lower, -1.93%
- Cc1ccc(NC(=O)CSc2nc3nccnc3c(=O)n2CCc2c[nH]c3ccccc23)cc1C — higher, 23.4%
- Cc1ccccc1OCCSc1nc2ccc(NC(=O)c3ccco3)cc2s1 — higher, 9.27%
- COC(=O)c1ccccc1NC(=O)Cn1c(=O)n(-c2ccc(C)cc2)c(=O)c2ccccc21 — lower, 5.43%
- CCOc1ccc(NC(=O)Cn2nc(CC)n3c(cc4sccc43)c2=O)cc1 — lower, -5.63%
- COc1cc(Nc2nc3c(S(=O)(=O)c4cccc(Cl)c4)nnn3c3ccsc23)cc(OC)c1 — lower, -3.47%
- COc1ccc(OCC(=O)Nc2cc(-c3nc4ccccc4o3)ccc2Cl)cc1 — lower, 4.55%
- COc1cccc(CNC(=O)c2ccc3nc(CCc4ccccc4)oc3c2)c1OC — lower, -7.75%
- CCc1cccc(C)c1Nc1c(-c2ccc(N(C)C)cc2)nc2cnccn12 — lower, -8.91%
- Cc1ccc(-n2nc(C)c3c(C)c(CCC(=O)NCc4ccc(Cl)cc4)c(C)nc32)cc1 — lower, 1.81%
- CCCOc1ccc(CN2C(=O)C(=O)c3cccc(C)c32)cc1 — higher, 7.83%
- CCc1ccc(C(=O)c2cn(CC(=O)Nc3cc(OC)cc(OC)c3)c3ccc(CC)cc3c2=O)cc1 — lower, -11.5%
- CCOc1ccc(CNCCSc2nnnn2C)cc1 — higher, 9.22%
- Cc1ccc(-c2nc(CS(=O)(=O)CC(=O)N3CCN(c4ccccc4)CC3)c(C)o2)cc1 — lower, -2.7%
- Cc1cccc(NC(=O)CSc2nc3ccc(NC(=O)CCc4ccccc4)cc3s2)c1 — lower, -2.53%
- COc1ccc(CNC(=O)c2cc3c(=O)n(Cc4ccc(OC)cc4)ccc3nc2C)cc1 — lower, 2.23%
- COc1cc(Br)cc2cc(S(=O)(=O)c3ccccc3)c(=O)oc12 — lower, 2.7%
- Cc1ccc(-c2noc(-c3cccnc3N(C)Cc3ccc(Cl)cc3)n2)cc1 — higher, 15.8%
- COc1cccc(NCc2nnc3n2CCCCC3)c1 — lower, 2.31%
- CCCSCCCNC(=O)c1sc2nc(C)cc(C)c2c1-n1cccc1 — higher, 10.7%
- CCOc1ccc(NC(=O)CN(c2ccc(C)cc2)S(=O)(=O)c2cccs2)cc1 — lower, 4.11%
- O=S1(=O)c2ccccc2N(Cc2ccc(F)cc2)c2ccccc21 — lower, -1.43%
- COc1ccc(Nc2nnc(-n3nc(C)cc3C)c3ccccc23)cc1 — lower, 1.31%
- O=C(NCCOCCn1c(=O)oc2ccccc21)Nc1ccc(F)cc1F — lower, -8.68%
- COc1ccc(-c2cc(C(=O)Oc3ccc(C#N)cc3)no2)cc1 — lower, -0.584%
- COc1ccc(CNC(=O)C(CC(C)C)NS(=O)(=O)c2ccc3c(c2)CCN3C(C)=O)cc1 (stereo not drawn) — lower, -12.4%
- Cc1ccc(Cl)cc1N1CCN(C(=O)CCc2nnc3n(C)c(=O)c4ccccc4n23)CC1 — lower, -5.46%
- COc1ccc(CCN2C(=O)CN(C3CCCCCC3)C(=O)C2c2ccc(Cl)cc2)cc1OC (stereo not drawn) — higher, 15.8%
- CCN(Cc1ccccc1)C(=O)c1cn(-c2cccc(OC)c2)c(=O)c2ccccc12 — lower, -0.163%
- Cc1ccc(NC(=O)CSc2nc3n[nH]c(C)c3c(=N)n2-c2ccccc2C)cc1C — lower, -27.7%
- O=C(Cn1ncc2c3ccccc3n(Cc3ccccc3)c2c1=O)NCCCN1CCCCC1 — lower, -2.09%
- COc1ccccc1C1C(C(=O)Nc2ccccc2)=C(C)Nc2nc(-c3ccccc3)nn21 (stereo not drawn) — higher, 17%
- CC(=O)N1CCc2cc(S(=O)(=O)NC(Cc3ccccc3)C(=O)Nc3cc(C)cc(C)c3)ccc21 (stereo not drawn) — higher, 7.69%
- CC1CCCCN1CCCNC(=O)Cn1ncc2c3ccccc3n(Cc3ccccc3)c2c1=O (stereo not drawn) — higher, 16.4%
- CCN(CC)S(=O)(=O)c1nnc(NC(=O)c2ccc(C)cc2)s1 — lower, -21.9%
- CC1CN(C(=O)N2CCC(C(=O)NCc3ccco3)CC2)c2ccccc2O1 (stereo not drawn) — higher, 14.3%
- Cc1ccc2ncc(C(=O)c3ccc(C)c(C)c3)c(S(=O)(=O)c3ccccc3)c2c1 — lower, -6.54%
- CCOc1cccc(C2c3c(oc4ccc(F)cc4c3=O)C(=O)N2c2cc(C)ccn2)c1 (stereo not drawn) — higher, 16%
- CC1CCN(c2nc3ccccc3nc2C(F)(F)F)CC1 — lower, -2.53%
- Cc1cccc(CN2C(=O)c3ccccc3Sc3ccc(C(=O)NCCCN4CCOCC4)cc32)c1 — higher, 15.8%
- O=C(Nc1nc2ccccc2n1CCOc1ccccc1Cl)c1ccccc1 — higher, 17.7%
- COc1ccc(CNC(=O)c2cc3oc4ccccc4c3n2C)cc1OC — lower, -2.92%
- CCc1ccc(S(=O)(=O)c2nnn3c2nc(N2CCC(C(N)=O)CC2)c2cc(Cl)ccc23)cc1 — lower, 2.53%
- Cc1c(C(=O)Nc2cccc(C#N)c2)sc2nc3n(c(=O)c12)CCCCC3 — higher, 24%
- COC(=O)c1sc2cccc(F)c2c1S(=O)(=O)Nc1cc(C)c(Cl)cc1OC — higher, 8.95%
- O=C(COc1ccc(Cl)cc1)Nc1ccc(-c2nc3cc(Cl)ccc3o2)c(O)c1 — lower, -2.12%
- CCCNC(=O)C1CCC(Cn2c(=O)c3sccc3n(CC(=O)N3CCCC3)c2=O)CC1 (stereo not drawn) — higher, 15.4%
- CCc1cccc(C)c1NC(=O)CN1C(=O)c2ccccc2Sc2ncccc21 — lower, 3.9%
- COC(=O)c1ccc(NC(=O)NC(C)c2c(-n3cccc3)sc(C)c2C)cc1 (stereo not drawn) — lower, -19.1%
- COc1ccc(Cl)cc1NC(=O)c1sc2nc(-c3ccc(OC)c(OC)c3)ccc2c1N — lower, -7.54%
- O=C(NCc1ccccc1)c1ccc2c(c1)N(Cc1ccc(F)cc1)CCS2 — higher, 8.83%
- CCC(=O)Nc1ccccc1-c1nc2ccccc2n(CC(=O)Nc2ccc(C)c(C)c2)c1=O — higher, 15.5%
- Cn1c(=O)c2cc(C(=O)Nc3cccc(C#N)c3)sc2c2ccccc21 — higher, 12.4%
- COc1ccc(C2=NN(CC(=O)NCCc3ccccc3)C(=O)CC2)cc1 — higher, 24.2%
- COc1ccc2c(c1)CC(C(=O)Nc1ccc(OC)cc1OC)CO2 (stereo not drawn) — higher, 25.3%
- O=S(=O)(c1ccc(OC(F)(F)F)cc1)N1CCC(c2nc3ccccc3s2)CC1 — lower, -24.5%
- CCOc1ccc(OCC)c(Nc2nc3ccc(C(=O)c4ccccc4)cc3n3cnnc23)c1 — higher, 8.22%
- O=C(Cn1cc(SCc2ccccc2F)c2ccccc21)N1CCCC1 — higher, 23.9%
- COc1ccc(NC(=O)c2c(NCc3cccs3)sc3c2CCCCC3)c(OC)c1 — lower, 4.03%
- Cc1cc(Br)ccc1NC(=O)CCNS(=O)(=O)c1cccc2nonc12 — lower, -6.64%
- O=C(Nc1ccc(Br)cc1F)c1cc2nc(-c3ccco3)cc(C(F)(F)Cl)n2n1 — lower, -11.3%
- CCOc1ccc(Cn2c(CNS(=O)(=O)c3ccc(CC)cc3)nc3cccnc32)cc1 — lower, -2.24%
- CCCn1cc(S(=O)(=O)c2ccc(CC)cc2)c(=O)c2cc(F)c(N3CCN(C)CC3)cc21 — lower, 1.29%
- CCOC(=O)c1c(S(=O)(=O)N2CCN(c3cccc(C(F)(F)F)c3)CC2)c(C)n(C)c1C — lower, 3.44%
- CNC(=O)c1ccc2nc(Cc3ccccc3)oc2c1 — higher, 19.5%
- COc1ccc(OC)c(CCNC(=O)c2nn(C)c3c2CSc2ccccc2-3)c1 — higher, 24.5%
- CC(C)c1ccc2oc(-c3ccc(Cl)c(NC(=O)Cc4ccccc4)c3)nc2c1 — lower, 4.84%
- CCC1CCc2c(sc(NC(=O)C3c4ccccc4Oc4ccccc43)c2C(=O)OC)C1 (stereo not drawn) — higher, 7.24%
- Cc1ccc(C(=O)c2oc3ccccc3c2NC(=O)C(C)Oc2ccccc2Cl)cc1 (stereo not drawn) — higher, 11.9%
- CCOC(=O)N1CCC(NC(=O)c2ccc3c(c2)N(Cc2ccc(Cl)cc2)C(=O)c2ccccc2S3(=O)=O)CC1 — higher, 26.8%
- CCOC(=O)c1ccc(N2C(=O)c3n[nH]c(-c4cccs4)c3C2c2ccc(OC)cc2OC)cc1 (stereo not drawn) — lower, 6.3%
- O=C(Nc1nc2c(s1)CCCC2)c1ccccc1F — lower, -3.09%

In the case of CCOC(=O)N1CCN(C(=O)C2CCN(S(=O)(=O)c3cc(C)ccc3OC)CC2)CC1, the inhibition is reported as active: 33.4%.
In the case of COc1ccc(N(CC(=O)NCCSCc2ccc(C)cc2)S(=O)(=O)c2ccccc2)cc1, the inhibition is reported as active: 30.8%.
COc1ccccc1OCCNCC(O)COc1cccc2[nH]c3ccccc3c12 (stereo not drawn) was tested, and the inhibition was active: 59.1% and active: 51.5%.
Oc1ccccc1Cn1c(-c2ccccc2O)nc2ccccc21 was tested, and the inhibition was active: 33.6%.
For CCOCCCN(C)C1CCN(C(=O)c2oc3ccccc3c2NC(=O)COc2ccc(F)cc2)CC1, the inhibition was active: 50.4%.
For CC(=O)NC(=S)Nc1ccccc1C(=O)Nc1ccccc1, the inhibition was active: 46.7%.
With CCCc1cc(=O)[nH]c(SCC(=O)N2CCN(S(=O)(=O)c3ccc(C)cc3C)CC2)n1 the inhibition was active: 40.9%.
For CCCn1c(N)c(C(=O)CSc2nc3ccccc3c(=O)n2-c2ccc(OC)cc2)c(=O)[nH]c1=O, the inhibition was active: 33.2%.
In the case of COCCNC(=S)Nc1cc2oc3ccccc3c2cc1OC, the inhibition is reported as active: 30%.
In the case of c1ccc(-c2ccccc2OCCCCN2CCCCC2)cc1, the inhibition is reported as active: 74.9%.
In the case of CCOC(=O)c1cnn(Cc2cccc(Cl)c2)c1C, the inhibition is reported as active: 55.8%.
With O=C(N/N=C/c1cccnc1)c1cccc(Cl)c1 the inhibition was active: 35%.
In the case of COc1ccc2c(c1)-c1nc(/N=C/c3ccc(O)cc3)sc1CC2, the inhibition is reported as active: 44.9%.
COc1ccccc1/C=C/CN1CCN(Cc2ccc(C)o2)C(CCO)C1 (stereo not drawn) was tested, and the inhibition was active: 49.2%.
C=CCNC(=O)c1ccccc1Cl was tested, and the inhibition was active: 40.2%.
For Clc1ccc(OCCN2CCCCC2)c(Cl)c1, the inhibition was active: 72.2%.
